The other results are listed elsewhere or left out. The list includes weakly bound sequences.

This experiment concerns the target T1, MBP-FoxP3dN (UniProt Q99JB6).
T1 sequence: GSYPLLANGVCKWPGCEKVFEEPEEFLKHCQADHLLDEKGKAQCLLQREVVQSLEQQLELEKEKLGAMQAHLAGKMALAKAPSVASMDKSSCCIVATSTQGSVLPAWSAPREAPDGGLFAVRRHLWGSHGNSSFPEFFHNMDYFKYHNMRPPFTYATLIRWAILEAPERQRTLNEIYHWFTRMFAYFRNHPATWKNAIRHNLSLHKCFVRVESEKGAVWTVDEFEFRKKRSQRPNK
Description: PD-seq (MBP pull-down with sequencing). The note with it: 20 mM Tris-HCl pH 7.5, 100 mM NaCl, 1.5 mM MgCl2, 0.4 uM protein, 0.1 uM dsDNA library, 30 min, room temperature, amylose pull-down; high values mean tight binding; double strand, one strand shown.
Turning to “GATGATTGTTCTCCCAGCTGATGAATTGAGAGGGTCGAGTAAACAAATTTTCCTAATCTTTCTGTTCAAGCGCCATCTAC”, the binding signal (RPM ratio (pull-down/input)) was determined as 0.277.

Take “GATGATTGTTCTCCCAGCTGATGAATTATCTTCCTCGAGTAAACAAATTTTCCTAATCTTTCTGTTCAAGCGCCATCTAC”: the binding signal (RPM ratio (pull-down/input)) came to 0.293.

With “GATGATTGTTCTCCCAGCTGATGAATTTTGGAAGTCGAGTAAACAAATTTTCCTAATCTTTCTGTTCAAGCGCCATCTAC”, the binding signal (RPM ratio (pull-down/input)) is 0.195.

As for “GATGATTGTTCTCCCAGCTGATGAATTTAGGGAGTCGAGTAAACAAATTTTCCTAATCTTTCTGTTCAAGCGCCATCTAC”, the binding signal (RPM ratio (pull-down/input)) was determined as 0.374.

For the sequence “GATGATTGTTCTCCCAGCTGATGAATTCGGCTAATCGAGTAAACAAATTTTCCTAATCTTTCTGTTCAAGCGCCATCTAC”, the binding signal (RPM ratio (pull-down/input)) was determined as 0.271.

Turning to “GATGATTGTTCTCCCAGCTGATGAATTAAACGGGTCGAGTAAACAAATTTTCCTAATCTTTCTGTTCAAGCGCCATCTAC”, the binding signal (RPM ratio (pull-down/input)) was 0.233.

Turning to “GATGATTGTTCTCCCAGCTGATGAATTCCCAGAATCGAGTAAACAAATTTTCCTAATCTTTCTGTTCAAGCGCCATCTAC”, the binding signal (RPM ratio (pull-down/input)) came out at 0.159.

Take “GATGATTGTTCTCCCAGCTGATGAATTTGCAATGTCGAGTAAACAAATTTTCCTAATCTTTCTGTTCAAGCGCCATCTAC”: the binding signal (RPM ratio (pull-down/input)) is 2.54.

Consider “GATGATTGTTCTCCCAGCTGATGAATTCATATTTTCGAGTAAACAAATTTTCCTAATCTTTCTGTTCAAGCGCCATCTAC”, for which the binding signal (RPM ratio (pull-down/input)) was 0.609.

Consider “GATGATTGTTCTCCCAGCTGATGAATTATATAGATCGAGTAAACAAATTTTCCTAATCTTTCTGTTCAAGCGCCATCTAC”, for which the binding signal (RPM ratio (pull-down/input)) was found to be 0.438.

Regarding “GATGATTGTTCTCCCAGCTGATGAATTTACGAGGTCGAGTAAACAAATTTTCCTAATCTTTCTGTTCAAGCGCCATCTAC”, the binding signal (RPM ratio (pull-down/input)) worked out at 0.366.

Consider “GATGATTGTTCTCCCAGCTGATGAATTCACCTGATCGAGTAAACAAATTTTCCTAATCTTTCTGTTCAAGCGCCATCTAC”, for which the binding signal (RPM ratio (pull-down/input)) worked out at 0.235.

Turning to “GATGATTGTTCTCCCAGCTGATGAATTGGAGATGTCGAGTAAACAAATTTTCCTAATCTTTCTGTTCAAGCGCCATCTAC”, the binding signal (RPM ratio (pull-down/input)) came to 0.343.

As to “GATGATTGTTCTCCCAGCTGATGAATTCCGATAATCGAGTAAACAAATTTTCCTAATCTTTCTGTTCAAGCGCCATCTAC”, the binding signal (RPM ratio (pull-down/input)) was 0.284.

Take “GATGATTGTTCTCCCAGCTGATGAATTGTGCGTTTCGAGTAAACAAATTTTCCTAATCTTTCTGTTCAAGCGCCATCTAC”: the binding signal (RPM ratio (pull-down/input)) was 5.5.

For “GATGATTGTTCTCCCAGCTGATGAATTAGACGCATCGAGTAAACAAATTTTCCTAATCTTTCTGTTCAAGCGCCATCTAC”, the binding signal (RPM ratio (pull-down/input)) came to 1.07.

As to “GATGATTGTTCTCCCAGCTGATGAATTAAACTCATCGAGTAAACAAATTTTCCTAATCTTTCTGTTCAAGCGCCATCTAC”, the binding signal (RPM ratio (pull-down/input)) turned out to be 0.448.

With “GATGATTGTTCTCCCAGCTGATGAATTCGCGGGATCGAGTAAACAAATTTTCCTAATCTTTCTGTTCAAGCGCCATCTAC”, the binding signal (RPM ratio (pull-down/input)) turned out to be 0.312.

In the case of “GATGATTGTTCTCCCAGCTGATGAATTGAGTTTATCGAGTAAACAAATTTTCCTAATCTTTCTGTTCAAGCGCCATCTAC”, the binding signal (RPM ratio (pull-down/input)) amounted to 3.31.

Consider “GATGATTGTTCTCCCAGCTGATGAATTCCGTCCATCGAGTAAACAAATTTTCCTAATCTTTCTGTTCAAGCGCCATCTAC”, for which the binding signal (RPM ratio (pull-down/input)) was 0.515.

With “GATGATTGTTCTCCCAGCTGATGAATTCTTGCTCTCGAGTAAACAAATTTTCCTAATCTTTCTGTTCAAGCGCCATCTAC”, the binding signal (RPM ratio (pull-down/input)) stood at 0.274.

Regarding “GATGATTGTTCTCCCAGCTGATGAATTTCTTTTCTCGAGTAAACAAATTTTCCTAATCTTTCTGTTCAAGCGCCATCTAC”, the binding signal (RPM ratio (pull-down/input)) amounted to 1.15.

Consider “GATGATTGTTCTCCCAGCTGATGAATTCTTTGCCTCGAGTAAACAAATTTTCCTAATCTTTCTGTTCAAGCGCCATCTAC”, for which the binding signal (RPM ratio (pull-down/input)) stood at 0.403.

Regarding “GATGATTGTTCTCCCAGCTGATGAATTTTCTGGATCGAGTAAACAAATTTTCCTAATCTTTCTGTTCAAGCGCCATCTAC”, the binding signal (RPM ratio (pull-down/input)) is 0.161.

As for “GATGATTGTTCTCCCAGCTGATGAATTCGGGCCCTCGAGTAAACAAATTTTCCTAATCTTTCTGTTCAAGCGCCATCTAC”, the binding signal (RPM ratio (pull-down/input)) was determined as 0.328.

Turning to “GATGATTGTTCTCCCAGCTGATGAATTAATGTAATCGAGTAAACAAATTTTCCTAATCTTTCTGTTCAAGCGCCATCTAC”, the binding signal (RPM ratio (pull-down/input)) was determined as 1.05.

Turning to “GATGATTGTTCTCCCAGCTGATGAATTCACACGTTCGAGTAAACAAATTTTCCTAATCTTTCTGTTCAAGCGCCATCTAC”, the binding signal (RPM ratio (pull-down/input)) turned out to be 0.354.

“GATGATTGTTCTCCCAGCTGATGAATTCCTCTGTTCGAGTAAACAAATTTTCCTAATCTTTCTGTTCAAGCGCCATCTAC”: the binding signal (RPM ratio (pull-down/input)) amounted to 0.248.

As to “GATGATTGTTCTCCCAGCTGATGAATTTCTTTAATCGAGTAAACAAATTTTCCTAATCTTTCTGTTCAAGCGCCATCTAC”, the binding signal (RPM ratio (pull-down/input)) amounted to 0.295.

For the sequence “GATGATTGTTCTCCCAGCTGATGAATTTTGCCCTTCGAGTAAACAAATTTTCCTAATCTTTCTGTTCAAGCGCCATCTAC”, the binding signal (RPM ratio (pull-down/input)) amounted to 1.57.

In the case of “GATGATTGTTCTCCCAGCTGATGAATTAAGTTTCTCGAGTAAACAAATTTTCCTAATCTTTCTGTTCAAGCGCCATCTAC”, the binding signal (RPM ratio (pull-down/input)) was determined as 1.58.

Values taken from publication PMC12820563.
